The whole screen tested about 340,000 compounds, of which about 6,900 (2%) were called active. Cut-off read from the data, not from the text of the source: active = inhibition above about 30%; inactive = below that, where a call was filed. This is a selection; strong and weak results do not stand in their true shares. The source gives no active or inactive call for entries shown without one.
The compounds below were run against D(2) dopamine receptor (Homo sapiens) (UniProt P14416) (assay: HTS Assay for Allosteric Antagonists of the Human D2 Dopamine Receptor: Primary Screen for Antagonists). Details: HEK293 TREx D2 cells, calcium flux, dopamine EC80; at 10 µM; stronger effect = higher value.
Sequence of UniProt P14416 (P14416 whole entry, looked up): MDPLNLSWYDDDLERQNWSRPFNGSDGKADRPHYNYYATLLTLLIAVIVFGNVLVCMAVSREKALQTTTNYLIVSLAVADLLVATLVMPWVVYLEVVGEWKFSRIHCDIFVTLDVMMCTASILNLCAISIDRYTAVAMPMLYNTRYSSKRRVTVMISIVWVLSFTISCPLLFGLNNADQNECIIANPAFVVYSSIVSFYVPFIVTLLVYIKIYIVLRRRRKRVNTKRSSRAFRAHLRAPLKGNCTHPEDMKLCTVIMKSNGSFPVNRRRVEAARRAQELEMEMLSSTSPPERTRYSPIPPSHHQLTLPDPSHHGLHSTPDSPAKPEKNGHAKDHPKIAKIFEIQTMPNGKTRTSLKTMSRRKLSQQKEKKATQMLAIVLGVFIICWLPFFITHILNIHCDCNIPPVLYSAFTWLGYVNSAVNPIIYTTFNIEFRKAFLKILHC
Procedure, shortened: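 Tetracycline-induced HEK293 TREx cells expressing D2 receptor forced-coupled to calcium signalling, loaded with no-wash calcium dye. Compounds added and calcium flux read 180 s, then dopamine added at EC80 and read a further 180 s.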
Note: 0% is about no effect.

| Structure (SMILES) | inhibition |
| --- | --- |
| O=C(CSc1nc(-c2ccccc2)nc2c1CCCC2)c1ccc(Cl)cc1 | 18.2% |
| COc1ccc(Cn2ccc3nc(C)c(C(=O)N4CCN(c5cc(C)ccc5C)CC4)cc3c2=O)cc1 | 6.94% |
| CCc1cccc(C)c1NC(=O)C(CC)n1ncn2c(cc3cc(C)ccc32)c1=O (stereo unspecified) | 0.744% |
| Cn1cc(C(F)(F)F)nc1-c1ccc(OCC(O)CNCCOc2ccc(O)c(C(N)=O)c2)cc1 (stereo unspecified) | active: 71.8% |
| Cc1ccc(S(=O)(=O)c2nc(S(=O)(=O)c3ccc(C)cc3)c(NC(C)C)s2)cc1 | 12.6% |
| COc1cc(Nc2cc(C)nc3ncnn23)cc(OC)c1OC | active: 31.9% |
| CCOc1ccc(CNC(=O)c2cnc3sc(N4CCCCCC4)nn3c2=O)cc1OC | 2.59% |
| Cc1ccc(C)c(NC(=O)Cn2c(=O)n(Cc3ccc4c(c3)OCO4)c(=O)c3ccc(C(=O)NC4CCCCC4)cc32)c1 | 12.3% |
| CC(C)Oc1ccc(C(=O)N2CC(=O)Nc3ccc(F)cc3C2c2ccc(F)cc2)cc1 (stereo unspecified) | -4.85% |
| CCOc1ccc(CNC(=O)CN2C(=O)C3CCCCN3c3ccc(C(=O)N4CCCC4)cc32)cc1 (stereo unspecified) | -5.59% |
| CCN1C(=O)c2ccccc2Sc2ccc(C(=O)NCCC(C)C)cc21 | active: 43.8% |
| COc1ccccc1CNC(=O)c1cc2cc(C)ccc2n1C | 11% |
| COc1cc(CNc2ccc3[nH]c(=O)[nH]c3c2)cc(Br)c1OCc1ccc(F)cc1 | 15.3% |
| CN(C)c1cccc(C(=O)N2CCC(c3ccncc3)CC2)c1 | 7.32% |
| COCCNc1ncnc2onc(-c3ccc(F)cc3)c12 | 2.97% |
| COc1ccc(OCCSc2nc3ccccc3n2CC(=O)N2CCOCC2)cc1 | -19.1% |
| COc1ccc(NC(=O)CCCc2nnc3n(CCC(C)C)c(=O)c4sccc4n23)cc1Cl | 1.9% |
| COc1ccc(/C=C/c2onc(C)c2S(=O)(=O)N2CCC(C(=O)N3CCCCC3)CC2)cc1 | -17.2% |
| Cc1ccc(-n2c(SCCC(C)C)nc3sc4c(c3c2=O)CC(C)(C)OC4)cc1 | -9.64% |
| CCOc1ccc(CNC(=O)C2CCN(C(=O)c3sccc3-n3cccc3)CC2)cc1 | 9.39% |
| COc1ccc(-c2cc(C(C)=O)c(C)n2CCC(=O)NC2CCCCC2)cc1 | 7.34% |
| O=C(CCN1CCCC1Cc1ccccc1)c1ccc2c(c1)OCCO2 (stereo unspecified) | active: 109% |
| COc1ccccc1CNC(=O)CN1C(=O)c2cccnc2Oc2ccccc21 | -5.98% |
| Cc1ccc(-c2noc(CSc3nnc(C)n3-c3ccc(C)cc3)n2)cc1 | 1.05% |
| Cc1ccc(NC(=O)C(Cc2ccccc2)NS(=O)(=O)c2cccs2)cc1Cl (stereo unspecified) | 9.51% |
| O=C(CS(=O)(=O)c1nc(-c2ccc(Cl)cc2)cn1-c1ccccc1)Nc1ccc(F)cc1F | 2.73% |
